One assay deals with HSkMC. Kind of assay: cytotoxicity call (relative viability < 0.9). Conditions: 10 µM.
For the next assay, the system named is HepG2. The experiment in a line: cytotoxicity call (relative viability < 0.9). Conditions: 10 µM.
Another assay deals with S. aureus RN4220. The experiment in a line: growth inhibition call (relative growth <= 0.2). Conditions: 50 µM.

This is one part of the list.

As to `[N-]=[N+]=Nc1ccccc1[C@@H]1OC(c2ccc(OCCCO)cc2)=N[C@]1(Cc1ccccc1)C(=O)N1CCCCC1`, the cytotoxicity call in the assay with HSkMC and with HepG2 was “inactive” each time. For the same molecule, the growth inhibition call in the assay on S. aureus RN4220 is “inactive”.
For `Nc1nc2ccc(OC(F)(F)F)cc2s1`, the cytotoxicity call in the assay on HSkMC and in the assay with HepG2 was “inactive” in each case. Also, in the assay with S. aureus RN4220, the growth inhibition call is “inactive”.
For `CC(C)(C)C(=O)N1CCNCC1`, the cytotoxicity call in the assay on HSkMC and in the assay on HepG2 was “inactive” in each case. For the same molecule, the growth inhibition call with S. aureus RN4220 was “inactive”.
Regarding `COCC#Cc1ccc2c(c1)O[C@@H](CN(C)S(=O)(=O)c1ccc(OC)cc1)[C@@H](C)CN([C@H](C)CO)S2(=O)=O`, the cytotoxicity call in the assay with HSkMC and in the assay on HepG2 was “inactive” throughout. The growth inhibition call in the assay with S. aureus RN4220 was “inactive”.
Turning to `COc1ccc(S(=O)(=O)Nc2ccc3c(c2)C(=O)N([C@H](C)CO)C[C@@H](C)[C@H](CN(C)CC2CCCCC2)OCCCC[C@@H](C)O3)cc1`, the cytotoxicity call with HSkMC and in the assay on HepG2 was “inactive” in each case. Also, the growth inhibition call in the assay with S. aureus RN4220 was “inactive”.
Take `c1c[nH]cn1`: the cytotoxicity call in the assay on HSkMC and in the assay on HepG2 was “inactive” in each case. In the assay with S. aureus RN4220, the growth inhibition call was “inactive”.
As for `COCC#Cc1ccc2c(c1)O[C@H](CN(C)S(C)(=O)=O)[C@H](C)CN([C@@H](C)CO)S2(=O)=O`, the cytotoxicity call in the assay with HSkMC and with HepG2 was “inactive” throughout. Also, the growth inhibition call in the assay with S. aureus RN4220 is “inactive”.
On to `COc1cccc(S(=O)(=O)Nc2ccc3c(c2)[C@H]2C[C@@H](CC(=O)NCCc4ccccc4)O[C@@H](CO)[C@H]2O3)c1`, for which the cytotoxicity call with HSkMC and in the assay with HepG2 was “inactive” throughout. Moreover, the growth inhibition call in the assay with S. aureus RN4220 was “inactive”.
Regarding `COc1ccc2c3c([nH]c2c1)[C@H](CO)N(Cc1ccccc1)C[C@]13CCN(CC1)C(=O)Nc1cccc(c1)F`, the cytotoxicity call with HSkMC and with HepG2 was “inactive” each time. Further, the growth inhibition call in the assay with S. aureus RN4220 is “inactive”.
Take `C[C@@H]1CN([C@H](C)CO)C(=O)CCCn2nncc2CO[C@H]1CN(C)C(=O)Nc1ccc2c(c1)OCO2`: the cytotoxicity call in the assay on HSkMC and with HepG2 was “inactive” throughout. In the assay with S. aureus RN4220, the growth inhibition call is “inactive”.
`CNC(=O)C[C@H]1CC[C@@H]2[C@H](COC[C@@H](O)CN2C(=O)c2ccc3c(c2)OCO3)O1`: the cytotoxicity call in the assay on HSkMC is “inactive”. Also, the cytotoxicity call in the assay on HepG2 is “active”. Moreover, in the assay on S. aureus RN4220, the growth inhibition call is “inactive”.
For the molecule `Cc1nnsc1-c1onc(C)c1C(N)=O`, the cytotoxicity call in the assay on HSkMC and in the assay with HepG2 was “inactive” throughout. Also, the growth inhibition call with S. aureus RN4220 is “inactive”.
In the case of `Cc1ccc(S(=O)(=O)Nc2ccc3c(c2)C(=O)N([C@H](C)CO)C[C@@H](C)[C@@H](CN(C)S(C)(=O)=O)OCCCC[C@H](C)O3)cc1`, the cytotoxicity call in the assay with HSkMC and in the assay with HepG2 was “inactive” each time. Moreover, the growth inhibition call in the assay with S. aureus RN4220 was “inactive”.
Take `C[C@H]1CN([C@@H](C)CO)C(=O)c2cc(NC(=O)Nc3ccc(F)cc3)ccc2O[C@@H]1CN(C)C(=O)Nc1ccc(C(F)(F)F)cc1`: the cytotoxicity call in the assay with HSkMC and in the assay on HepG2 was “inactive” each time. Also, the growth inhibition call with S. aureus RN4220 is “inactive”.
Take `O=C(C[C@H]1C[C@@H]2c3cc(NC(=O)Nc4ccc(C(F)(F)F)cc4)ccc3O[C@@H]2[C@H](CO)O1)NC1CCCCC1`: the cytotoxicity call with HSkMC and in the assay with HepG2 was “inactive” in each case. In addition, the growth inhibition call in the assay with S. aureus RN4220 was “inactive”.
Consider `COc1ccc(NC(=O)N(C)C[C@@H]2Oc3c(NS(C)(=O)=O)cccc3C(=O)N([C@@H](C)CO)C[C@H]2C)cc1`, for which the cytotoxicity call with HSkMC and in the assay on HepG2 was “inactive” each time. Besides, the growth inhibition call in the assay on S. aureus RN4220 was “inactive”.
With `C[C@@H]1CN([C@H](C)CO)C(=O)Cc2cc(NC(=O)Nc3ccc(F)cc3)ccc2O[C@@H]1CN(C)Cc1ccc(-c2ccccc2)cc1`, the cytotoxicity call with HSkMC and in the assay with HepG2 was “inactive” each time. In addition, the growth inhibition call in the assay on S. aureus RN4220 was “inactive”.
For the molecule `CON(C)c1nc(Oc2ccc(=O)[nH]n2)nc(N(C)C)n1`, the cytotoxicity call in the assay on HSkMC and with HepG2 was “inactive” in each case. The growth inhibition call in the assay on S. aureus RN4220 is “inactive”.
Consider `Cc1cc2c(o1)CC(C)(C)CC2=O`, for which the cytotoxicity call in the assay with HSkMC and in the assay with HepG2 was “inactive” in each case. The growth inhibition call with S. aureus RN4220 is “inactive”.
`CN(C)C(=O)N[C@H]1CN(S(C)(=O)=O)[C@H]2CCCO[C@@H]12`: the cytotoxicity call in the assay on HSkMC and with HepG2 was “inactive” each time. Also, in the assay on S. aureus RN4220, the growth inhibition call was “inactive”.
As for `C[C@@H]1CN([C@H](C)CO)C(=O)c2cccc(NC(=O)NC3CCCCC3)c2O[C@@H]1CN(C)C(=O)Nc1cccc2ccccc12`, the cytotoxicity call in the assay with HSkMC and in the assay on HepG2 was “inactive” each time. Further, in the assay on S. aureus RN4220, the growth inhibition call was “inactive”.
On to `C[C@@H]1CN([C@@H](C)CO)C(=O)c2cc(NC(=O)Cc3ccccc3)ccc2O[C@@H](C)CCCCO[C@H]1CN(C)Cc1ccc2c(c1)OCO2`, for which the cytotoxicity call with HSkMC and with HepG2 was “inactive” throughout. Further, the growth inhibition call in the assay on S. aureus RN4220 was “inactive”.
With `CO[C@H](C(=O)[C@@H](O)[C@@H](C)O)[C@H]1Cc2cc3cc(O[C@H]4C[C@@H](O[C@H]5C[C@@H](O)[C@@H](O)[C@@H](C)O5)[C@@H](O)[C@@H](C)O4)c(C)c(O)c3c(O)c2C(=O)[C@@H]1O[C@H]1C[C@@H](O[C@H]2C[C@@H](O[C@H]3C[C@@](C)(O)[C@@H](O)[C@@H](C)O3)[C@@H](O)[C@@H](C)O2)[C@@H](O)[C@@H](C)O1`, the cytotoxicity call with HSkMC is “inactive”. Besides, the cytotoxicity call in the assay on HepG2 was “active”. In addition, the growth inhibition call with S. aureus RN4220 was “inactive”.
On to `Nc1nc(=O)c2nc(Br)n([C@H]3O[C@H]4COP(=O)(O)O[C@@H]4[C@@H]3O)c2[nH]1`, for which the cytotoxicity call in the assay on HSkMC and with HepG2 was “inactive” throughout. Moreover, the growth inhibition call in the assay on S. aureus RN4220 was “inactive”.
For `CN(C)CCC=C1c2ccccc2COc2ccccc21.Cl`, in the assay with HSkMC, the cytotoxicity call is “inactive”. Besides, in the assay on HepG2, the cytotoxicity call is “active”. Besides, the growth inhibition call with S. aureus RN4220 was “inactive”.
For the molecule `C[C@H]1CCCCO[C@@H](CN(C)C(=O)Nc2ccccc2)[C@@H](C)CN([C@@H](C)CO)C(=O)c2cc(NC(=O)C3CCCCC3)ccc2O1`, the cytotoxicity call with HSkMC and with HepG2 was “inactive” throughout. For the same molecule, the growth inhibition call in the assay on S. aureus RN4220 was “inactive”.
As for `COCCc1nc2c(c(=O)n(C)c(=O)n2C)n1C`, the cytotoxicity call in the assay on HSkMC and with HepG2 was “inactive” in each case. In the assay on S. aureus RN4220, the growth inhibition call was “inactive”.
As to `CN(C)CCCC[C@@H]1NC(=O)[C@@H]2C[C@H](C(=O)NCCCCCCNC(=O)CS)[C@H](c3cccc(OCCO)c3)N2C1=O`, the cytotoxicity call in the assay on HSkMC and in the assay on HepG2 was “inactive” throughout. Also, the growth inhibition call in the assay on S. aureus RN4220 was “inactive”.
Regarding `Cc1noc(C)c1S(=O)(=O)N(C)C[C@H]1Oc2ccc(NC(=O)C3CC3)cc2CC(=O)N([C@H](C)CO)C[C@H]1C`, the cytotoxicity call in the assay on HSkMC (human skeletal muscle cells) and in the assay on HepG2 was “inactive” throughout. Besides, the growth inhibition call in the assay with S. aureus RN4220 was “inactive”.
